Data taken from article PMC12136788.
The other results are listed elsewhere or left out.

T1: UNK ZnF1-6 (called full-length) (human, UniProt Q9C0B0 30-357)
T1 sequence: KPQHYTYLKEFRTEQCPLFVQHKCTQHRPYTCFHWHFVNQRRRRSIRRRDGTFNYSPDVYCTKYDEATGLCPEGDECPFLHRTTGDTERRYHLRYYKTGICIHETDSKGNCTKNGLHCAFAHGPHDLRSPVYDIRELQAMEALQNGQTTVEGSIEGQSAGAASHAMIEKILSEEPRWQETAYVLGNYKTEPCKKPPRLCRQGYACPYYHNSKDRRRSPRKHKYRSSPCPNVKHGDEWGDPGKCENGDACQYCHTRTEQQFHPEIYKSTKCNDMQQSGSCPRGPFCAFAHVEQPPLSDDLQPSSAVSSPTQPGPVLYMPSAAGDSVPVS

B1: chr4:57031156:57031257:-|3pUTR|ENSG00000163453|msi1|total|mutant (ssRNA)
RNA: GGGAGUUCUACAGUCCGACGAUCAUAACUACAUUACCUGUUCUUGCCUAAUAAGUUUCUUUUAAUCCAAUCCACUAACACUUCCGUUAUAUUCACUGGUUUUACACAGAGAAAUACAAAAUAAAGAUCACACAUCAAGACUAUCAACAGAGGAUUGAGCAUCA
B2: chr9:6012816:6012917:-|CDS|ENSG00000137040|unk|total|mutant (ssRNA)
RNA: GGGAGUUCUACAGUCCGACGAUCGGGAUUGUGCAUAUUUGAUGACAUCACCGAGCACUGCAGUCCAACUUCAUUUAAAUAUGCCGAAUAUUUUCGGUGGCCAAUGCUACUAAAUAUGCGAGAUAACAACCCUGAAGUCAGGCACAACAGAGGAUUGAGCAUCA
B3: ENSG00000136451:be:win_1651|3pUTR|ENSG00000136451|bound_else_gene|NA|bound_elsewhere_windowed (ssRNA)
RNA: GGGAGUUCUACAGUCCGACGAUCAUGAAAUUGGGAGAUUUUAUUACAUUAGUUAAUAAGAGUGUGGUAGCAUUUUUCUCCAAUUUGGCUGGGAUUAUUCAAAGUAGGGUGUGUAUGUAACUUAUCACUGGACCACUUUAGUUUCAACAGAGGAUUGAGCAUCA
B4: chr15:75657416:75657517:+|3pUTR|ENSG00000173548|msi1|FALSE|unique (ssRNA)
RNA: GGGAGUUCUACAGUCCGACGAUCCAUGGGUGCCCCUGGGAAAUUCCCCACUCCUUAGAAGUGGGGCACAGCAGGGGUGAGAAUAGAGUCAGGAGCCCUCGAGGCCAAGGCCUGGGCUGCCGGUCAGUCAGUGAAGGUCAGGCCCAACAGAGGAUUGAGCAUCA
B5: chr15:38484694:38484795:+|3pUTR|ENSG00000171262|unk|FALSE|unique (ssRNA)
RNA: GGGAGUUCUACAGUCCGACGAUCAUUAGAAAUAGUGUUCCAAAUAACAUACUUGAAUAUCAUCUUUGAAGUAAACACCAUGUUAGACUCCCUGGUGAUACCACUCUUGAAUUGGUUAAUAUGUAAGAACAUUGUUUUUUAUUACAACAGAGGAUUGAGCAUCA
B6: chr2:99394746:99394872:+|CDS|ENSG00000158417|unk|total|mutant (ssRNA)
RNA: GGGAGUUCUACAGUCCGACGAUCGAUGUGAGAAUUGAACGAGAUGCACAAGAAAUGGCUGACCGUUCCGGAGUCCGAAUUUUCCGUGCAGAAAUUAUUUAUCAUUUAUUUGAUGCCUUUACAAAAUACCGACAAGACUACAAGCAACAGAGGAUUGAGCAUCA
B7: chr1:152032676:152032810:-|CDS|ENSG00000163191|unk|total|mutant (ssRNA)
RNA: GGGAGUUCUACAGUCCGACGAUCGGACCCUGGUGUCCUUGACCGCAUGAUGAAGAAACUGGACACCAACAGUGAUGGUCAGCCCGAUUUCUCAGAAUUUCUUAAUCUGAUUGGUGGCCCCGCUAUGGCUUGCCAUGACUCCUUCAACAGAGGAUUGAGCAUCA
B8: chr6:111661451:111661552:-|3pUTR|ENSG00000010810|msi1|FALSE|bound_elsewhere (ssRNA)
RNA: GGGAGUUCUACAGUCCGACGAUCCUUUGGAAAAUGCAUUGUAUCGAUGUUAUGUAAAAGGCCAAACCUCUGUUCAGUGUAAAUAGUUACUCCAGUGCCAACAAUCCUAGUGCUUUCCUUUUUUAAAAAUGCAAAUCCUAUGUGCAACAGAGGAUUGAGCAUCA
B9: chr2:205797254:205797461:+|3pUTR|ENSG00000118257|msi1|total|mutant (ssRNA)
RNA: GGGAGUUCUACAGUCCGACGAUCUCACCCUCCCAUGAUGCGCAGUGUUCAGAAAGCUGGUAAGUCCCCGGGAUUUCCAGAAGCCGCCUGCAGAAGAAGGUAAGUUUGAAAGCCACUCCAGGGGUCCUGAUGCUGUCAUGCUCACAACAGAGGAUUGAGCAUCA
B10: chr11:10770493:10770605:+|CDS|ENSG00000198730|unk|FALSE|unique (ssRNA)
RNA: GGGAGUUCUACAGUCCGACGAUCACAUGUGGCACCCAGUGAUACAGUUCUUAUGUUUAAUGUGGCCUUGGUCCUGCAAAGAUUAGCUACCUCUGUCCUGAAAGAUGAAAAAAGUAAUCUGAAGGAAGUACUUAAUGCUGUGAACAACAGAGGAUUGAGCAUCA
B11: chr13:32775312:32775413:+|3pUTR|ENSG00000083642|unk|FALSE|unique (ssRNA)
RNA: GGGAGUUCUACAGUCCGACGAUCGAAACUUGUAAAUAUCUUUUUUCUUUUUUUUAAUGUUUCUGAUUUCUGAAGUGCUUGUAUAGCUUUUAUCUGCGGCUUUAAACUGACAGUACCCGACUGUUUAUUGGAUCUAUUGAUUUGCAACAGAGGAUUGAGCAUCA
B12: chr7:20413385:20413486:+|3pUTR|ENSG00000105855|msi1|total|mutant (ssRNA)
RNA: GGGAGUUCUACAGUCCGACGAUCACUGAAGAUAUCUUUAUGCAAGACAAGAGUCAGCCAUCAGACACUGAAAUAUAUUAUGACCGAUUAUGAAGAAUUUUCUCUGCCGAAUUAUAUUCUUCCUGGAACCUGGCCGAGCCGAUUCAACAGAGGAUUGAGCAUCA
B13: chr19:54333184:54333571:-|three_prime_utr|ENSG00000239961|control|control|control (ssRNA)
RNA: GGGAGUUCUACAGUCCGACGAUCGCUGAGAAUAUCAAGGGGAAGAAGCAUGGGUCAGGUGCAGGAAGAUGUCUGGGUGUCUGUAGAAGAUGCUUCCUCCAUUAAACUGUGGUGCUUUCCUCCUCAUUGUCGACUCUCCUUGACCAACAGAGGAUUGAGCAUCA
B14: ENSG00000198589:be:win_7751|CDS|ENSG00000198589|bound_else_gene|NA|bound_elsewhere_windowed (ssRNA)
RNA: GGGAGUUCUACAGUCCGACGAUCAAGUGCAUUCCCAGUGCUUUGUCAUCACUUCAGACAACCGCUAUAUUCUCGUCUGUGGCUUCUGGGAUAAAAGUUUCAGAGUCUAUUCUACAGACACAGGAAGAUUGAUCCAAGUGGUGUCAACAGAGGAUUGAGCAUCA
B15: chr1:27612063:27612913:-|three_prime_utr|ENSG00000000938|control|control|control (ssRNA)
RNA: GGGAGUUCUACAGUCCGACGAUCGGUGGCCACCAGUCCUUGCCAAUCCCCAGAGCUGUUCUUCCAAAGCCCCCAGGCUGGCUUAGAACCCCAUAGAGUCCUAGCAUCACCGAGGACGUGGCUGCUCUGACACCACCUAGGGCACAACAGAGGAUUGAGCAUCA
B16: chr17:48061271:48061372:+|3pUTR|ENSG00000082641|msi1|total|mutant (ssRNA)
RNA: GGGAGUUCUACAGUCCGACGAUCAGUGAAAUGGGGGUGGGGGGAAGCACUGAUUCCCAGUCCGGGGGUGCCUAACUGAGCAGCCGGGACCGAAGGUGUGAACCUGGGAGUGCUUUUAUAAAUUAUUUUCCUUGCCGAUUUUAUCAACAGAGGAUUGAGCAUCA
B17: chr15:25371268:25371377:-|CDS|ENSG00000114062|unk|total|mutant (ssRNA)
RNA: GGGAGUUCUACAGUCCGACGAUCCACAAUGUAUACUCUCGAGAUCCUAAUUAUCUGAAUUUGUUCAUUAUCGUAAUGGAGAACCGAAAUCUCCACAGUCCUGAAUAUCUGGAAAUGGCUUUGCCAUUAUUUUGCAAAGCGAUGCAACAGAGGAUUGAGCAUCA
B18: chr2:120222042:120222143:-|CDS|ENSG00000226479|msi1|FALSE|bound_elsewhere (ssRNA)
RNA: GGGAGUUCUACAGUCCGACGAUCGAAAUUUUCCCAUUUUUAAGAGAAUAUGGGAACAUUUCAUAUGAUCUCCAUCACGAAGAUAGUGAAGAUGCUGAAGAAACAUCAGUUCCAGAAGCUCCGAAAAUUGCUCCAAUAUUUGGACAACAGAGGAUUGAGCAUCA
B19: chr1:71070866:71070979:-|CDS|ENSG00000132485|unk|FALSE|bound_elsewhere (ssRNA)
RNA: GGGAGUUCUACAGUCCGACGAUCGAGGAUGAAGAUGACGCUGAUCUCUCAAAAUAUAAUCUUGAUGCCAGUGAAGAAGAAGAUAGUAAUAAAAAGAAAUCUAAUAGACGAAGUCGCUCAAAGUCUCGAUCUUCACAUUCACGACAACAGAGGAUUGAGCAUCA
B20: chr6:151351738:151351839:+|CDS|ENSG00000131016|msi1|FALSE|unique (ssRNA)
RNA: GGGAGUUCUACAGUCCGACGAUCGGUGGUGGGGCAGACCACCCCAGAAAGCUUUGAAAAAGCUCCUCAAGUCACAGAGAGCAUAGAGUCCAGUGAGCUUGUAACCACUUGUCAAGCCGAAACCUUAGCUGGGGUAAAAUCACACAACAGAGGAUUGAGCAUCA
B21: ENSG00000173848:stop:overlap|stop_codon|ENSG00000173848|stop_codon|NA|stop_codon (ssRNA)
RNA: GGGAGUUCUACAGUCCGACGAUCGCAUCCGAAGAGCGAGGGACAAAGCCCUUUCUGGUGGCAAACGGAAAGAGACUUUGGUGUAGAGAAGGCUCUGUGUGUUAACUGAUGGGAGAGACUGUUUGUUUAUAAAUGUGUACAGUUCAACAGAGGAUUGAGCAUCA
B22: ENSG00000107863:be:win_2801|CDS|ENSG00000107863|bound_else_gene|NA|bound_elsewhere_windowed (ssRNA)
RNA: GGGAGUUCUACAGUCCGACGAUCAGGAAGGGUGGCUUCAUUUCCGACCCCUUGUCACCGAUAAGGGCAAGCGAGUUGGUGGAAGUAUUCGGCCAUGGAAACAGAUGUAUGUUGUCCUUCGGGGUCAUUCACUUUACCUGUACACAACAGAGGAUUGAGCAUCA

Target: T1, UNK ZnF1-6 (called full-length)
Assay: nsRBNS (natural sequence RNA bind-n-seq); RBNS binding buffer (assumed for nsRBNS): 25 mM Tris pH 7.5, 150 mM KCl, 3 mM MgCl2, 0.01% Triton X-100, 500 ug/ml BSA, 20 U/ml SUPERase-In, 4 C; UNK is unkempt and MSI1 is Musashi-1; names of the RNAs are library labels; protein concentration not given here; high values mean tight binding

Binder | binding signal [enrichment R]
B1 | 0.789
B2 | 0.387
B3 | 0.914
B4 | 0.59
B5 | 1.09
B6 | 0.647
B7 | 0.427
B8 | 1.11
B9 | 0.712
B10 | 0.82
B11 | 1.27
B12 | 0.292
B13 | 0.755
B14 | 0.285
B15 | 1.41
B16 | 1.55
B17 | 0.458
B18 | 0.19
B19 | 0.527
B20 | 0.711
B21 | 1.07
B22 | 0.479
